Measurements reported in PMC4336329 (PLoS ONE, 2015).
Among all 310,000 compounds or so, about 14,000 (4.5%) showed an effect of 50% or more. The effect is printed as a negative number. This is one part of the list.

Molecular target: human ether-à-go-go-related gene (hERG) potassium channel (human, UniProt Q12809)
Test: primary screen, population patch clamp on CHO cells stably expressing hERG
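Further: peak tail current of the secondary pulse compared with the same well before compound.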

Chain of human ether-à-go-go-related gene (hERG) potassium channel (Q12809 whole entry, looked up): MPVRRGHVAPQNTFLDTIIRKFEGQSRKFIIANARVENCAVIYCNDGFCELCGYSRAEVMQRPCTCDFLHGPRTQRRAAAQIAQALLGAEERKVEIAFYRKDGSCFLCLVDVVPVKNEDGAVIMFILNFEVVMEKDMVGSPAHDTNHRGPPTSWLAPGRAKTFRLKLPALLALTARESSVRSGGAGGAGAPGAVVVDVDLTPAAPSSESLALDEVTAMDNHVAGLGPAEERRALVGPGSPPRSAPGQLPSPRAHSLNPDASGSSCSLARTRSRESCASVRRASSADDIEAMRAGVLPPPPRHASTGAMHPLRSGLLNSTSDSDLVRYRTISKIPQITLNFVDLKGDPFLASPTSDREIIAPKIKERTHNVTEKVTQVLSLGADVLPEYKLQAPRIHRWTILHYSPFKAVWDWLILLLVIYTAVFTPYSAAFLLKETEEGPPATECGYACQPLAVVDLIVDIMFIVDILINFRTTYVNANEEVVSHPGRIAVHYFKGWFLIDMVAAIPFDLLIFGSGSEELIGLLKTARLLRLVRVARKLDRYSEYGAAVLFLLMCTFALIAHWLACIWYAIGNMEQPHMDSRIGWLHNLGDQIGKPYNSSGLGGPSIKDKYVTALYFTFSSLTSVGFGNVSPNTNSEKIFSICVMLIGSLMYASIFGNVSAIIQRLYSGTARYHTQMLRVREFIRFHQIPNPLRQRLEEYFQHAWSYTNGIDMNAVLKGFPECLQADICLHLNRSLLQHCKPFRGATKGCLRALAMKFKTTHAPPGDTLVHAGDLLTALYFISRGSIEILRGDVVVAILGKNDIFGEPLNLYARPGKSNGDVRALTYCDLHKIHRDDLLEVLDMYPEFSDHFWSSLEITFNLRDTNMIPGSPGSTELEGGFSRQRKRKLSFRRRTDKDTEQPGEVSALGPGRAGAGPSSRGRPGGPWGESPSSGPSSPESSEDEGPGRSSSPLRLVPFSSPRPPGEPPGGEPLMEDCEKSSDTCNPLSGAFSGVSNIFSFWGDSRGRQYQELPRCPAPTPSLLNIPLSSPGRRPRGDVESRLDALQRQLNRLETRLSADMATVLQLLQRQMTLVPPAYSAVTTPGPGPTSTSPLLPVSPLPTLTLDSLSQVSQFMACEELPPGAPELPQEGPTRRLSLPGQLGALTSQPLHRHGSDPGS

SMILES | hERG current change (%, negative = inhibition) at 10uM [%]
COc1cccc(OCc2cc(C(=O)N3CCN(c4ccccc4O)CC3)no2)c1 | 4.71
O=C(CCNC(=O)C1CCN(S(=O)(=O)c2ccccc2)CC1)NCc1ccc(Cl)c(Cl)c1 | -30.7
CC(C)CC(=O)Nc1nnc(S(=O)(=O)N2CCCCCC2)s1 | -15
C=CCNC(=S)NNC(=O)c1ccco1 | 2.45
CCN(CC(=O)Nc1c(F)cccc1F)C(=O)C1CCC1 | -13.8
CC(C)(C)n1nc2c(c1NC(=O)CCCc1ccccc1)CS(=O)C2 (stereo not shown) | 5.69
COc1ccc(C)cc1NC(=S)N1CCN(c2ncccn2)CC1 | -8.99
O=C(c1cccc2nccnc12)N1CCCC(Nc2ccc(F)c(F)c2)C1 (stereo not shown) | -1.4
CCCCC(CCC(=O)Nc1nccs1)C(=O)O (stereo not shown) | 8.82
CC(C)C[C@H](NC(=O)N1CCn2c1nc1ccccc12)C(=O)NCc1ccco1 | 10
O=C(NCC1CCCN(C(=O)c2cc(Cl)ccc2F)C1)c1ccc(F)cc1 (stereo not shown) | -6.65
COc1ccc(OC)c(C2C(C(=O)c3ccco3)=C(O)C(=O)N2CC2CCCO2)c1 (stereo not shown) | 13.1
CCCc1nc(NCCCOCC)c2nnn(Cc3ccccc3)c2n1 | -3.78
Cc1c(C(=O)N2CCN(C(=O)c3ccco3)CC2)sc2nc(-c3ccc(F)cc3)cn12 | -76.9
O=C(NCC(=O)N1CCCC1)c1ccc(Cl)cc1 | 7.38
Cc1ccc(C)c(OCC(=O)NC2CCCCCC2)c1 | 13
Cc1cc(N2CCN(C(=O)Nc3ccc(F)cc3F)CC2)c2ccccc2n1 | -72.2
CCC(C)NC(=O)CNC(=O)c1nn(-c2ccc(OC)cc2)c(=O)c2ccccc12 (stereo not shown) | 16.8
COc1ccc(C2C3=C(CC(c4ccco4)CC3=O)Nc3ccccc3N2C(C)=O)cc1 (stereo not shown) | -7.88
c1ccc(CCc2nc(-c3ccncc3)no2)cc1 | 4.06

SMILES | hERG current change (%, negative = inhibition) at 10uM [%]
O=C(OCC(=O)N1CCCc2ccccc21)c1cccnc1Cl | -3.36
COc1ccc(C(=O)NCc2cccnc2)cc1S(=O)(=O)N1CCOCC1 | 14.5
O=C(/C=C/c1ccco1)NC1=NCCS1 | 13.7
Cc1ccnc(NC(=O)C(C)N2C(=O)c3ccccc3C2=O)c1 (stereo not shown) | 8.86
COc1ccc(C(=O)Nn2c(CC(C)C)nc3cc(Cl)ccc3c2=O)c(OC)c1 | 13.4
CC(=O)Nc1nc(-c2cccc3ccccc23)cs1 | -9.32
C#CCn1c(=NC(=O)c2ccc(Br)s2)sc2cccc(OC)c21 | 18.9
COc1cc2c(cc1OC)CN(S(=O)(=O)c1ccc3c(c1)OCCO3)CC2 | -13.4
COc1ccc(-n2c(CNC(=O)c3ccc(S(=O)(=O)N4CCCC4)cc3)n[nH]c2=S)cc1 | 12.2
CCN1C(=O)/C(=C/N(C(C)=O)c2ccccc2)N(c2ccccc2)C1=S | -22.3
Cc1ccc(/C=C2\C(=O)Nc3ccccc32)o1 | 5.04
Br.CCOc1ccc(S(=O)(=O)NN2Cc3ccccc3C2=N)cc1 | 5.2
O=C(C1=COCCO1)N1CCN(C(c2ccccc2)c2ccccc2)CC1 | -7.48
CN(N=Nc1cccc([N+](=O)[O-])c1)c1cccc([N+](=O)[O-])c1 | 8.56
COc1cc(/C=N/Nc2ccc(Cl)c(C(=O)O)c2)ccc1OC(=O)c1cccs1 | 1.7
CCn1c(SCc2ccc(C(=O)Nc3nccs3)cc2)nnc1-c1ccc(NC(C)=O)cc1 | 1.21
CCOC(=O)c1cc(C(=O)n2cc(Cl)cn2)nn1C | 10.6
Cc1ncc([N+](=O)[O-])n1CC(=O)Nc1ccc2c(c1)OCO2 | 19.5
Cc1ccc(C(=O)NCCc2nnc(SCC(=O)Nc3cccc(C(=O)O)c3)n2C)cc1 | 10.3
COC(CNS(=O)(=O)c1ccc(S(=O)(=O)NC2CC2)cc1)OC | 22.3

SMILES | hERG current change (%, negative = inhibition) at 10uM [%]
COC(=O)c1ccc(C)c(-n2c(C)cc(C=O)c2C)c1 | 9.86
CN(C)/C=C1\NC(=S)N(c2ccc(Cl)cc2)C1=O | 17.4
Cc1ccc(C)n1-c1ccccc1N | 9.14
COc1ccc(C2C(C(=O)c3ccccc3)=C(C)Nc3nc4ccccc4n32)c(OC)c1 (stereo not shown) | 14.2
Cc1ccc(S(=O)(=O)N2CCN(S(=O)(=O)N3CCOCC3)CC2)cc1 | 13.4
O=C(Nc1ccccc1Cl)Oc1ccc(-c2ccccc2)cc1 | 8.23
O=C(Nc1cccc(NC(=O)c2cccc(F)c2)c1)c1ccccc1 | 6.26
O=C(COc1ccc(Cl)cc1)Nc1ccc2c(c1)OCO2 | 24.1
Cc1cccc(N2CCN(Cc3nc(-c4ccccc4Cl)oc3C)CC2)n1 | -16.1
N=C1C(c2nc3ccccc3s2)=C(O)CN1CCCO | -8.26
Cc1cc(C(=O)O)cc(S(=O)(=O)N2CCOCC2)c1C | 1.95
CC(C)c1ccc(Oc2cccc(C(=O)/C(C#N)=C/N(C)C)c2)cc1 | -14.6
O=C(CN1CCc2ccccc2C1)Nc1cc(S(=O)(=O)N2CCOCC2)ccc1N1CCOCC1 | -8.99
O=C(NCc1ccccc1)c1c(F)c(F)c(F)c(F)c1F | 12.8
Cn1c(N2CCNCC2)nc2ccccc21 | -15.7
Cc1nn(-c2ccc(Cl)cc2)c(=O)c2ccccc12 | 3.41
Cc1ccc(C23CC4CC(CC(C(=O)NC(C)C(N)=O)(C4)C2)C3)cc1 (stereo not shown) | 0.796
CCCCNCc1cc(OCC)c(OCC(N)=O)cc1Br | 2.18
